Source: ChEMBL document CHEMBL4888484, “Replenishing the malaria drug discovery pipeline: Screening and hit evaluation of the MMV Hit Generation Library 1 (HGL1) against asexual blood stage Plasmodium falciparum ,using a nano luciferase reporter read-out” (2022)
Among all 150,000 compounds or so, about 540 (0.36%) showed an effect of 50% or more. Some of the results follow.

Tested on: Plasmodium falciparum
Assay: Primary screen in NF54 nanoGlo assay, in single point, at 2uM, 72h; a lower Z score goes with more inhibition
Format: functional, Erythrocyte
Details: timepoint 72 hour

Compound	% Inhibition	Z score
Cc1ccccc1CNC(=O)C1CCC(C(F)(F)F)NC1=O (centres undefined)	-3%	0.44
Cn1cc(C#N)cc1C(=O)OC1C2CCOC2C12CCC2 (centres undefined)	7%	-1.15
Cc1nn(C(F)F)cc1S(=O)(=O)NCc1ccccc1N1CCC(C)CC1	4%	-0.56
Nc1ccc(CC(=O)OC2CCCC2)cc1	2%	-0.35
Cc1ccc2ncc(C(=O)N3CCC(C(F)F)CC3)c(=O)n2c1	-18%	3.13
O=C1C[C@H](c2nc(C3CC3)nn2-c2ccccc2)c2ccccc21	9%	-1.53
CCC(CC)C(=O)N1CCC(Oc2ccc(CN(C)Cc3cnn(C)c3)cc2)CC1	-15%	1.96
O=S(=O)(NC1=NN2C(=NC(c3ccc(Cl)cc3)=C[C@H]2c2ccc(F)cc2)N1)c1ccccc1	-7%	0.73
CC[C@H](C)c1n[nH]c2c1CN(C(=O)CN1C(=O)c3ccccc3C1=O)CC2	-11%	2.01
CC1(C(=O)NCc2ccc(F)cc2F)CCN(C(=O)CC2CCCC2)CC1	32%	-0.32
CC(C)O[C@@H](C)C(=O)NCc1cccc(Cl)c1F	-7%	1.28
CCC[C@H]1CN(S(=O)(=O)C2CC2)C[C@@H]1Nc1cncc(C(N)=O)n1	-7%	1.16
COc1ccc(CN2C(=O)c3cc4oc(C)cc4n3C[C@@]2(C)C(=O)NC2CCCCC2)cc1	11%	-2.04
CCOC(=O)c1cc(NC(=O)c2ccc3cc[nH]c3c2)[nH]n1	-1%	0.17
CCN1CCN(CC(=O)Nc2cc(C)no2)c2ccccc21	-5%	0.68
Cc1c(CC(N)=O)c2c(n1Cc1ccc(F)cc1)CCCC2=O	-13%	1.37
CC(C)c1nccn1C1CN(C(=O)Nc2ccccc2)C1	-5%	0.65
Cc1cnc(N(C)Cc2ccncn2)nc1N(C)C	-10%	1.37
COC(=O)c1ccc(CNC(=O)c2ccc[nH]2)nc1C1CC1	29%	-3.27
CCc1cnccc1C(=O)OC[C@H]1CCCN1c1ccc(C)nn1	-8%	0.84
COC(=O)c1cc(CNC(=O)Cc2ccccc2C)cc(NC(=O)Cn2cccn2)c1	-13%	1.74

Compound	% Inhibition	Z score
CC[C@@H](C(=O)NCc1cccc(OC)c1)n1nc(C)c2nn(-c3ccccc3)c(C)c2c1=O	7%	-1.03
O=C(Cc1cnn(-c2ccccc2)c1)N1CCc2ccccc2C1	1%	-0.17
CCS(=O)(=O)NCc1cccnc1	-18%	1.81
O=C(NC(c1ccccc1)c1cccs1)C1CCCO1 (centres undefined)	-11%	1.57
Cc1cnn(C(C)C(C)NC(C)c2nnc(C)o2)c1 (centres undefined)	-5%	0.76
O=C(NC[C@H]1CCCN1c1nccs1)c1cccnc1	-17%	3.26
Cc1n[nH]c(=O)nc1Nc1ccc2c(c1)OCO2	-2%	0.33
COCc1csc(C(=O)NCC2(CC#N)CC2)c1	2%	-0.32
CCC(C)NC(=O)C1CC(C)N(Cc2ccn(C)c(=O)c2)c2ccccc21 (centres undefined)	-8%	0.81
Cc1cccc(S(=O)(=O)N2CC3CN(C(=O)c4ccco4)CC(C2)O3)c1	-21%	1.84
CCOCCS(=O)(=O)N1C2CCC1CC(O)(Cc1ccc(F)cc1F)C2 (centres undefined)	-17%	1.91
CCN1C(=O)c2cc(NC(=O)c3cc(C)cc(C)c3)ccc2Oc2ccccc21	-9%	1.09
COC(=O)[C@@H](C)CN(Cc1ccccc1)Cc1ncc(-c2ccc(OC)cc2)o1	0%	0
COc1cc2c(cc1F)CN(C(=O)c1ccnnc1C)CC2	-4%	0.68
COCC1(CNC(=O)CN2CCOCC2)CCCC1	-4%	0.62
COc1ccc(NC(=O)[C@H](C(C)C)N(C)C)cn1	-12%	2.53
O=C(N[C@@H](Cc1ccccc1)C(=O)OCc1ccc(Cl)cc1)OCc1ccccc1	-7%	1
CC(C)(C)C(=O)N1CCC(COc2ccc(C#N)cc2Cl)CC1	6%	-1.06
CCc1nc2c(s1)[C@@H](N(C)CC1(CC(=O)O)CC1)CCC2	-7%	0.89
CC(=O)Nc1c(C)cc(C)c(CNC(=O)COc2ccc3c(c2)OCO3)c1C	-6%	0.94
CC1([C@@](O)(C#CC[N+]2(C)CCCCC2)c2ccccc2)CCCC1	60%	-9.64
